Measured values from the supplement of paper PMC4604168 (melanoma cell lines).
The other results are listed elsewhere or left out. Most values come without repeats; read them as rough.

Test system: WM1716
Assay: cell count relative to DMSO control; melanoma cells; higher = more viable cells
Conditions: library dose: standard library concentration; 72 h
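Note: cells treated in 1,536-well plates, then fixed and DAPI-stained, with nuclei counted from automated high-throughput microscope images.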

Row | Compound | cell count [%]
1 | Clc1ccc(Nc2nnc(Cc3ccncc3)c3ccccc23)cc1 [vatalanib] + O=S(=O)(c1ccccc1)N(CC(F)(F)F)c1ccc(C(O)(C(F)(F)F)C(F)(F)F)cc1 [T0901317] (first compound 10 µM, partner dose 7 µM) | 85.5
2 | Clc1ccc(Nc2nnc(Cc3ccncc3)c3ccccc23)cc1 [vatalanib] + Oc1cc(-c2nc(-c3ccccc3)[nH]c2-c2ccncc2)ccc1Cl [L779450] (first compound 10 µM, partner dose 1 µM) | 64.3
3 | OCc1c[nH]c2ccccc12 [Indole-3-carbinol] + O=S(=O)(c1ccccc1)N(CC(F)(F)F)c1ccc(C(O)(C(F)(F)F)C(F)(F)F)cc1 [T0901317] (first compound 4 µM, partner dose 7 µM) | 91
4 | Clc1ccc(Nc2nnc(Cc3ccncc3)c3ccccc23)cc1 [vatalanib] + COC(=O)c1sccc1S(=O)(=O)Nc1ccc(Nc2ccccc2)cc1OC [GSK0660] (first compound 10 µM, partner dose 5 µM) | 95.1
5 | OCc1c[nH]c2ccccc12 [Indole-3-carbinol] + NCC(=O)Nc1ccc(-n2nc(C(F)(F)F)cc2-c2ccc3c(ccc4ccccc43)c2)cc1 [OSU03012] (first compound 4 µM, partner dose 5 µM) | 87.7
6 | Clc1ccc(Nc2nnc(Cc3ccncc3)c3ccccc23)cc1 [vatalanib] + CCN(CC)CCCCNc1ncc2cc(-c3cc(OC)cc(OC)c3)c(NC(=O)NC(C)(C)C)nc2n1 [PD173074] (first compound 10 µM, partner dose 0.5 µM) | 79.8
7 | OCc1c[nH]c2ccccc12 [Indole-3-carbinol] + CC(C)CCN1c2nc(Nc3cc(F)c(O)c(F)c3)ncc2N(C)C(=O)C1C [BID1870] (first compound 4 µM, partner dose 1 µM) | 90.9
8 | OCc1c[nH]c2ccccc12 [Indole-3-carbinol] + O=C(O)C(=O)Nc1sc2c(c1C(=O)O)CCNC2 [TCS401] (first compound 4 µM, partner dose 8.33333 µM) | 108
9 | Clc1ccc(Nc2nnc(Cc3ccncc3)c3ccccc23)cc1 [vatalanib] + COc1cc(N2CCC(N3CCN(C)CC3)CC2)ccc1Nc1ncc(Cl)c(Nc2ccccc2S(=O)(=O)C(C)C)n1 [NVP-TAE684] (first compound 10 µM, partner dose 0.4 µM) | 78
10 | OCc1c[nH]c2ccccc12 [Indole-3-carbinol] + COc1ccc2c(c1)CCC1C2CCC2(C)C(NCCCCCCN3C(=O)C=CC3=O)CCC12 [U73122] (first compound 4 µM, partner dose 2 µM) | 80.3
11 | OCc1c[nH]c2ccccc12 [Indole-3-carbinol] + N#Cc1c(O)c2c(-c3ccc(-c4ccccc4O)cc3)csc2[nH]c1=O [A769662] (first compound 4 µM, partner dose 10 µM) | 87.3
12 | OCc1c[nH]c2ccccc12 [Indole-3-carbinol] + CCN(CC)CCCCNc1ncc2cc(-c3cc(OC)cc(OC)c3)c(NC(=O)NC(C)(C)C)nc2n1 [PD173074] (first compound 4 µM, partner dose 0.5 µM) | 101
13 | OCc1c[nH]c2ccccc12 [Indole-3-carbinol] + Oc1cc(-c2nc(-c3ccccc3)[nH]c2-c2ccncc2)ccc1Cl [L779450] (first compound 4 µM, partner dose 1 µM) | 73.8
14 | Clc1ccc(Nc2nnc(Cc3ccncc3)c3ccccc23)cc1 [vatalanib] + O=c1cc(-c2cccc3c2Sc2ccccc2S3)oc(N2CCOCC2)c1 [KU55933] (first compound 10 µM, partner dose 5 µM) | 85.3
15 | OCc1c[nH]c2ccccc12 [Indole-3-carbinol] + O=C1NC(=O)/C(=C/c2ccc(-c3ccc(F)cc3O)o2)S1 [AS252424] (first compound 4 µM, partner dose 5 µM) | 133
16 | OCc1c[nH]c2ccccc12 [Indole-3-carbinol] + CCc1ccc(CCOc2ccc(CC3SC(=O)NC3=O)cc2)nc1 [pioglitazone] (first compound 4 µM, partner dose 10 µM) | 86.5
17 | OCc1c[nH]c2ccccc12 [Indole-3-carbinol] + COc1ccc(-c2ccc3c(N4CCOCC4)nc(N4C[C@@H](C)O[C@@H](C)C4)nc3n2)cc1CO [KU0063794] (first compound 4 µM, partner dose 0.1 µM) | 104
18 | OCc1c[nH]c2ccccc12 [Indole-3-carbinol] + CCCCCCCCCCCC1=C(O)C(=O)C=C(O)C1=O [Embelin] (first compound 4 µM, partner dose 6 µM) | 80

Row | Compound | cell count [%]
19 | Clc1ccc(Nc2nnc(Cc3ccncc3)c3ccccc23)cc1 [vatalanib] + CCCCCCCCCCCC1=C(O)C(=O)C=C(O)C1=O [Embelin] (first compound 10 µM, partner dose 6 µM) | 77
20 | Clc1ccc(Nc2nnc(Cc3ccncc3)c3ccccc23)cc1 [vatalanib] + c1cc(-c2cnn3cc(-c4ccc(OCCN5CCCCC5)cc4)cnc23)ccn1 [Dorsomorphin] (first compound 10 µM, partner dose 2 µM) | 69.1
21 | Clc1ccc(Nc2nnc(Cc3ccncc3)c3ccccc23)cc1 [vatalanib] + CCc1ccc(CCOc2ccc(CC3SC(=O)NC3=O)cc2)nc1 [pioglitazone] (first compound 10 µM, partner dose 10 µM) | 76.2
22 | OCc1c[nH]c2ccccc12 [Indole-3-carbinol] + COC(=O)c1sccc1S(=O)(=O)Nc1ccc(Nc2ccccc2)cc1OC [GSK0660] (first compound 4 µM, partner dose 5 µM) | 120
23 | Clc1ccc(Nc2nnc(Cc3ccncc3)c3ccccc23)cc1 [vatalanib] + O=C(Nc1ccccc1)c1cc([N+](=O)[O-])ccc1Cl [GW9662] (first compound 10 µM, partner dose 10 µM) | 70.5
24 | OCc1c[nH]c2ccccc12 [Indole-3-carbinol] + c1cc(-c2cnn3cc(-c4ccc(OCCN5CCCCC5)cc4)cnc23)ccn1 [Dorsomorphin] (first compound 4 µM, partner dose 2 µM) | 92.2
25 | OCc1c[nH]c2ccccc12 [Indole-3-carbinol] + O=c1cc(-c2cccc3c2Sc2ccccc2S3)oc(N2CCOCC2)c1 [KU55933] (first compound 4 µM, partner dose 5 µM) | 101
26 | OCc1c[nH]c2ccccc12 [Indole-3-carbinol] + COc1cc2ncnc(Nc3ccc(Oc4ccccc4)cc3)c2cc1OC [SrcI1] (first compound 4 µM, partner dose 10 µM) | 91
27 | OCc1c[nH]c2ccccc12 [Indole-3-carbinol] + Cn1cc(/C=C2\C(=O)Nc3cccnc32)c2ccccc21 [GW441756] (first compound 4 µM, partner dose 2 µM) | 99.5
28 | OCc1c[nH]c2ccccc12 [Indole-3-carbinol] + Oc1nc(-c2ccc(C(F)(F)F)cc2)nc2c1CSCC2 [XAV939] (first compound 4 µM, partner dose 10 µM) | 57.9
29 | Clc1ccc(Nc2nnc(Cc3ccncc3)c3ccccc23)cc1 [vatalanib] + N#Cc1c(O)c2c(-c3ccc(-c4ccccc4O)cc3)csc2[nH]c1=O [A769662] (first compound 10 µM, partner dose 10 µM) | 85.6
30 | Clc1ccc(Nc2nnc(Cc3ccncc3)c3ccccc23)cc1 [vatalanib] + O=C(O)C(=O)Nc1sc2c(c1C(=O)O)CCNC2 [TCS401] (first compound 10 µM, partner dose 8.33333 µM) | 87
31 | Clc1ccc(Nc2nnc(Cc3ccncc3)c3ccccc23)cc1 [vatalanib] + COc1ccc(-c2ccc3c(N4CCOCC4)nc(N4C[C@@H](C)O[C@@H](C)C4)nc3n2)cc1CO [KU0063794] (first compound 10 µM, partner dose 0.1 µM) | 78.5
32 | Clc1ccc(Nc2nnc(Cc3ccncc3)c3ccccc23)cc1 [vatalanib] + CC(C)CCN1c2nc(Nc3cc(F)c(O)c(F)c3)ncc2N(C)C(=O)C1C [BID1870] (first compound 10 µM, partner dose 1 µM) | 80.8
33 | OCc1c[nH]c2ccccc12 [Indole-3-carbinol] + O=C(Nc1ccccc1)c1cc([N+](=O)[O-])ccc1Cl [GW9662] (first compound 4 µM, partner dose 10 µM) | 92.1
34 | Clc1ccc(Nc2nnc(Cc3ccncc3)c3ccccc23)cc1 [vatalanib] + Oc1nc(-c2ccc(C(F)(F)F)cc2)nc2c1CSCC2 [XAV939] (first compound 10 µM, partner dose 10 µM) | 66.3
35 | Clc1ccc(Nc2nnc(Cc3ccncc3)c3ccccc23)cc1 [vatalanib] + O=C1NC(=O)/C(=C/c2ccc(-c3ccc(F)cc3O)o2)S1 [AS252424] (first compound 10 µM, partner dose 5 µM) | 95.4
36 | Nc1cccc2c1CN(C1CCC(=O)NC1=O)C2=O (stereo unspecified) [lenalidomide] + COc1cc2c(Oc3ccc4[nH]c(C)cc4c3F)ncnc2cc1OCCCN1CCCC1 [cediranib] (first compound 5 µM, partner dose 2 µM) | 85.3
